The other results are listed elsewhere or left out. These are noisy estimates, calculated here from bound and input reads.
Biological target: T1, Pho4 (S. cerevisiae) (UniProt P07270)
T1 sequence: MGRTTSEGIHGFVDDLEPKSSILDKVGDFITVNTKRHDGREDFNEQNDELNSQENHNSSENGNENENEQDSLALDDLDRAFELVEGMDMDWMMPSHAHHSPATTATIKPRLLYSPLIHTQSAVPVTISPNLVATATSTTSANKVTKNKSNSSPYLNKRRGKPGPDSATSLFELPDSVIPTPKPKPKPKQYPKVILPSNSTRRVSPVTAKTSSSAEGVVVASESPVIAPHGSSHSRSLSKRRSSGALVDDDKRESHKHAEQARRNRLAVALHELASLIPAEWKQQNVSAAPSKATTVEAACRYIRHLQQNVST
Assay: relative binding free energy (BET-seq); higher = weaker binding
Conditions: reference: library average

Row | Sequence | relative binding free energy [kJ/mol]
1 | GGGGGCACGTGCAGAG | -0.795
2 | ATGATCACGTGATTGT | 0.753
3 | CTGCGCACGTGGTGTT | -1.3
4 | TTTTTCACGTGAAGGT | 1.63
5 | GTTGACACGTGGTCTT | -0.335
6 | TATTGCACGTGCAGTA | -0.209
7 | AGGTGCACGTGAGTAT | 0.879
8 | TAGACCACGTGGGGTG | -1.21
9 | GGCTGCACGTGGGAGT | -0.502
10 | GGGTACACGTGCTGGG | 0.418
11 | TGAGTCACGTGTTCGA | 0.544
12 | GTATTCACGTGGATTT | 0.92
13 | ATAGTCACGTGTAGAG | 0.544
14 | GCTTGCACGTGTCTGG | 0.209
15 | GAAATCACGTGTGTGA | 1.3
16 | CTGATCACGTGAAGGG | 1.55
17 | GATCGCACGTGGGTTT | -0.669
18 | GTAAGCACGTGGTTTG | -0.879
19 | ATATTCACGTGGGCGT | 0.502
20 | AGGGTCACGTGGCGGA | 0.418
21 | ATCTTCACGTGGTGGT | 0.795
22 | ATATACACGTGTTCGT | -0.418
23 | ATGCGCACGTGGTAAG | -0.879
24 | ATGAGCACGTGGGAAG | -0.544
25 | ATGGCCACGTGACGGT | 0.293

Row | Sequence | relative binding free energy [kJ/mol]
26 | ACGGTCACGTGGAAGT | 0.377
27 | GTGTCCACGTGCTGGT | -0.46
28 | ATTGGCACGTGTCTGC | -0.251
29 | TGGGACACGTGATGTG | 0.711
30 | TCGGGCACGTGTCTGG | -0.251
31 | TCGGACACGTGGTGAT | 0.167
32 | TCGCGCACGTGGTATG | -0.586
33 | TGGATCACGTGGGCGT | -0.0837
34 | TAATTCACGTGGGATT | 1
35 | TTTACCACGTGGTAGT | -0.335
36 | ATATTCACGTGTGGAG | 0.544
37 | GGGATCACGTGGAGGA | 0.586
38 | AGCGGCACGTGATGGA | 0.0418
39 | CTTTGCACGTGTGGAT | -0.0837
40 | TTGTTCACGTGGCTAA | 1.59
41 | TGCTGCACGTGAGGAG | 1.13
42 | GGTCGCACGTGGGCGG | -0.753
43 | AGAACCACGTGGTGTG | -0.46
44 | GAATTCACGTGTGTCT | 1.51
45 | ATTTTCACGTGTCTCG | 1.09
46 | AATATCACGTGGTACT | 0.628
47 | TGGCACACGTGGTGTT | -0.502
48 | ATGGGCACGTGCGAGG | -0.502
49 | GCGTGCACGTGGTAGG | -0.418
50 | GTTTTCACGTGCTTAT | 0.669

Row | Sequence | relative binding free energy [kJ/mol]
51 | CTTGACACGTGCTTGT | -0.293
52 | GAGTTCACGTGGCCTG | 1.3
53 | ATTGACACGTGATAAG | 0.753
54 | GTCGGCACGTGGGTTA | -0.46
55 | TTCGCCACGTGATGGG | -0.209
56 | AAAGGCACGTGCAGGT | -0.879
57 | TGTGTCACGTGAATAG | 1.42
58 | CGCGGCACGTGTGTAG | -0.377
59 | TTTGTCACGTGTACTT | 0.586
60 | TTGGGCACGTGTGGAT | -0.0418
61 | CAGGACACGTGGGGGT | -0.0837
62 | TATGGCACGTGTCGAT | -0.418
63 | AGTGCCACGTGCGTAT | -0.377
64 | TGTTGCACGTGCAGCT | -0.293
65 | AACGGCACGTGGGGGC | -0.669
66 | GGAGGCACGTGGTGGC | -0.335
67 | AAAGGCACGTGAAGGG | 0.335
68 | CTAGGCACGTGCGGGA | -0.502
69 | AGAATCACGTGCTGGG | 0.711
70 | TGGTTCACGTGTTGTC | 1.17
71 | TAGCTCACGTGTGATT | 1.51
72 | TTGGTCACGTGCTTTG | 0.544
73 | GTGGTCACGTGGGGTA | -0.293
74 | CATTTCACGTGGTAGG | 0.293
75 | AGTGGCACGTGCCGGT | -1.17

Row | Sequence | relative binding free energy [kJ/mol]
76 | GGAATCACGTGTGTTT | 1.17
77 | GTTCTCACGTGAGGAT | 1.92
78 | TAAGTCACGTGGTGAA | 0.46
79 | TTGCTCACGTGGTTCT | 0.544
80 | GTGAACACGTGCGCGG | -0.0418
81 | CGGGACACGTGATTGG | 0.628
82 | GCGTTCACGTGTCAGG | 1.42
83 | TGCCACACGTGAGTGT | 1.38
84 | TTTATCACGTGCAAGT | 0.46
85 | TGGGCCACGTGGGTAT | -0.92
86 | GGCGGCACGTGAACGG | 0.962
87 | GGATGCACGTGTACAG | 0.209
88 | TTTTACACGTGCTGTA | 0.209
89 | AAGGCCACGTGGTATT | -0.209
90 | TCGGTCACGTGTGGCG | 0.167
91 | ATGCACACGTGGGTGA | -0.293
92 | ATATTCACGTGTGAGA | 0.962
93 | TGTGACACGTGGGCTT | -0.502
94 | AGTGTCACGTGAGTTG | 1.17
95 | TTTATCACGTGACATT | 0.795
96 | GTTACCACGTGTATTT | 0.544
97 | TTTCTCACGTGGGCTG | 0.586
98 | AGTTGCACGTGTCTCG | 0.335
99 | GTTAGCACGTGGAATG | -0.335
100 | TGTATCACGTGAAATT | 1.09

Row | Sequence | relative binding free energy [kJ/mol]
101 | TCCGGCACGTGAAGGG | 0.753
102 | GATGGCACGTGGTTGC | 0.0837
103 | GTTTTCACGTGAGAAG | 1.72
104 | AATGTCACGTGTTAGG | 0.46
105 | AAGTTCACGTGTGAAG | 0.837
106 | GTGTTCACGTGTTCGA | 1.3
107 | TTATGCACGTGGTAGT | -0.0418
108 | GGGCTCACGTGGGAGG | 0.753
109 | TTATTCACGTGGATAT | 0.669
110 | GGATGCACGTGGCTTG | 0.0418
111 | TAGGTCACGTGTGTAT | 0.335
112 | AAGGGCACGTGAGGAA | 0.502
113 | GTAGGCACGTGTAAAG | -0.126
114 | TAGCGCACGTGAAAGG | 1.09
115 | AGGGTCACGTGTAGTA | 0.251
116 | TTGATCACGTGGTGGG | 0.502
117 | CCGAGCACGTGGGGGT | -1.13
118 | GTAGGCACGTGGTGTC | -0.544
119 | ACTGACACGTGATGGG | 0.669
120 | TTAAACACGTGTTTAA | 0.293
121 | TTTAACACGTGCTGGG | -0.0837
122 | GTGTTCACGTGCGATA | 1.09
123 | CTTTACACGTGTGCGT | 0.418
124 | CGTGGCACGTGGGGCA | -0.795
125 | TGCGGCACGTGGGTGG | -0.377

Row | Sequence | relative binding free energy [kJ/mol]
126 | TGATCCACGTGTTATT | 0
127 | GTAGTCACGTGGTTTC | 0.251
128 | ATAGTCACGTGGGGGC | -0.209
129 | CTAATCACGTGGTGTT | 0.46
130 | CTTTTCACGTGGGACG | 0.753
131 | GATTACACGTGTGTTG | 0.46
132 | AGCGTCACGTGGCGAT | 0.544
133 | ATGGACACGTGTTCGG | -0.126
134 | TAAGGCACGTGGTGAT | -0.502
135 | AAGGGCACGTGGATGA | -0.0837
136 | GGTATCACGTGAATGA | 1.84
137 | TTATTCACGTGACTGG | 1.34
138 | CTTAACACGTGGTTGT | -0.167
139 | TGAGGCACGTGCTGGT | -0.293
140 | AGCGGCACGTGATGCG | 0.126
141 | GATGTCACGTGGTATA | 0.418
142 | GATTACACGTGGCGTT | 0.586
143 | ATTGGCACGTGTCCGT | -0.209
144 | TTAGTCACGTGTCGTT | 0.879
145 | ATGTGCACGTGTTTTG | 0.251
146 | AGAGTCACGTGGTTAC | 0.753

Reference: the BET-seq Pho4 binding data (Le et al. 2018)
